Measurements taken from the GPR68 mutational scans of Howard et al. (2025).

B1: GPR68, Q15743 (parent)
chain: MGNITADNSSMSCTIDHTIHQTLAPVVYVTVLVVGFPANCLSLYFGYLQIKARNELGVYLCNLTVADLFYICSLPFWLQYVLQHDNWSHGDLSCQVCGILLYENIYISVGFLCCISVDRYLAVAHPFRFHQFRTLKAAVGVSVVIWAKELLTSIYFLMHEEVIEDENQHRVCFEHYPIQAWQRAINYYRFLVGFLFPICLLLASYQGILRAVRRSHGTQKSRKDQIQRLVLSTVVIFLACFLPYHVLLLVRSVWEASCDFAKGVFNAYHFSLLLTSFNCVADPVLYCFVSETTHRDLARLRGACLAFLTCSRTGRAREAYPLGAPEASGKSGAQGEEPELLTKLHPAFQTPNSPGSGGFPTGRLA

Experiments:
[1] = variants of: B1; assay: cAMP reporter score (Enrich2 score, wild type = 0); higher = more signal; HEK293T, FACS bins
[2] = variants of: B1; assay: surface expression score (Enrich2 score, wild type = 0); higher = more signal; HEK293T, FACS bins

Variant | cAMP reporter score ([1]; pH 5.5) | cAMP reporter score ([1]; pH 6) | cAMP reporter score ([1]; pH 6, modulator: ogerin) | cAMP reporter score ([1]; pH 6.5, modulator: ogerin) | surface expression score [2]
W181F | 0.3 | -1.39 | -0.156 | -1.31 | 0.565
W181G | -0.835 | – | -0.664 | -1.46 | 0.623
W181H | -0.402 | -0.34 | -0.567 | -0.394 | –
W181I | -0.884 | -1.2 | -2.11 | -1.29 | -0.614
W181K | 0.186 | – | – | – | 0.281
W181L | -1.05 | -0.366 | -0.727 | -1.02 | -0.773
W181M | -0.378 | – | -0.716 | -0.446 | –
W181N | 0.301 | -0.558 | -0.932 | -0.937 | -0.496
W181P | 0.226 | -0.012 | -0.172 | -1.03 | 0.249
W181Q | 0.814 | -0.879 | -1 | -1.17 | 0.251
W181R | -0.661 | -1.96 | 0.049 | – | 1.47
W181S | -0.361 | -0.664 | -0.424 | -0.569 | 0.223
W181T | -0.809 | 0.396 | -1.99 | -0.954 | -0.069
W181V | -1.33 | -1.02 | -1.9 | -0.871 | -1.54
W181_Q182del | 1.58 | 0.513 | 0.528 | -0.322 | 0.179
W181_Q182insG | 0.219 | -0.183 | -1.27 | -1.06 | -2
Q182_A184del | -2.08 | -1.59 | -1.81 | -1.32 | -1.64
Q182_R183insGS | 0.815 | 0.171 | – | -2.09 | 0.212
Q182_R183insGSG | -0.492 | -0.86 | -0.278 | -1.11 | -1.09
R183_A184del | -0.853 | -0.848 | – | -2.35 | -2.85
R183_A184insGS | 0.222 | 0.971 | -0.473 | -0.498 | -0.341
R183_A184insGSG | -0.713 | -0.542 | -1.13 | -1.21 | -1.66

Variant | cAMP reporter score ([1]; pH 5.5) | cAMP reporter score ([1]; pH 6) | cAMP reporter score ([1]; pH 6, modulator: ogerin) | cAMP reporter score ([1]; pH 6.5, modulator: ogerin) | surface expression score [2]
R183del | -0.835 | – | -1.74 | -0.57 | –
I185_N186insG | -0.422 | -1.04 | -1.38 | -1.66 | -1.29
I185_N186insGS | -1.34 | -1.66 | -0.766 | -1.01 | -3.05
N186A | 1.04 | 1.35 | 1.03 | 0.861 | 1.2
N186C | 0.749 | -0.377 | 0.873 | -0.133 | -1.12
N186D | 0.414 | -0.605 | – | -0.439 | -0.795
N186E | -1.64 | -0.817 | – | -2.22 | -2.43
N186F | 1.15 | -0.035 | 1.12 | 1.36 | 2.59
N186H | -1.15 | -1.6 | -0.532 | -1.56 | -0.959
N186I | -0.068 | -1.01 | -0.259 | 0.431 | -0.168
N186K | -1.37 | -1.09 | -1.13 | -1.06 | -2.28
N186L | 1.02 | -0.156 | 1.33 | 1.32 | -0.411
N186M | 0.387 | -1.02 | 0.203 | 1.53 | 0.918
N186P | -1.3 | – | – | -0.623 | -2.76
N186Q | -0.412 | – | – | – | –
N186R | -1.11 | -0.287 | -0.772 | 0.084 | -2.28
N186S | 0.788 | 2.42 | 1.24 | 2.93 | -0.198
N186T | -0.404 | – | -0.31 | -0.798 | -0.575
N186V | 0.127 | -0.765 | -0.169 | 0.086 | 0.673
N186W | -2.52 | 0.633 | -0.729 | – | -0.552
N186Y | -0.428 | 0.071 | 0.647 | -0.556 | 0.085
N186_Y187del | -0.501 | – | -0.861 | -0.656 | -2.53

Variant | cAMP reporter score ([1]; pH 5.5) | cAMP reporter score ([1]; pH 6) | cAMP reporter score ([1]; pH 6, modulator: ogerin) | cAMP reporter score ([1]; pH 6.5, modulator: ogerin) | surface expression score [2]
N186_Y188del | -1.91 | – | – | -0.898 | -1.95
N186del | -1.67 | -2.32 | – | -2.34 | -0.935
Y187A | -1.1 | -1.01 | -1.08 | -1.21 | -1.55
Y187C | 0.716 | -0.284 | -0.003 | -0.401 | -0.672
Y187F | -0.896 | -1.36 | -0.943 | -1.24 | -0.446
Y187G | 0.394 | 0.364 | 0.952 | -0.013 | -0.391
Y187H | -1.12 | -1.05 | -0.986 | -1.3 | -1.95
Y187I | -0.244 | – | 0.469 | – | -0.434
Y187K | 1.64 | -0.534 | 1.39 | 1.2 | -0.334
Y187L | -0.17 | 0.444 | 1.33 | 0.255 | 0.967
Y187M | 0.398 | 0.081 | -0.099 | 0.241 | 0.717
Y187N | -0.034 | -0.141 | 0.199 | -0.308 | -0.899
Y187P | -0.524 | -0.425 | -0.958 | -0.643 | -2.09
Y187Q | 0.285 | 0.599 | 0.72 | 0.491 | -1.57
Y187R | 0.069 | -0.394 | 0.025 | -1.07 | -2.75
Y187S | 0.183 | -0.465 | -0.115 | -0.297 | -1.24
Y187T | 0.917 | -0.965 | 0.33 | -0.679 | -1.06
Y187V | 0.003 | 0.672 | 0.677 | -0.27 | -0.976
Y187W | 0.693 | 0.876 | 1.13 | -0.006 | 0.173
Y187_Y188del | -0.406 | – | -2.33 | -0.933 | –
Y187_Y188insGSG | -1.66 | -0.971 | -1.7 | -1.6 | -2.29

The least precise scores are not listed. Two further conditions of the source, in which the scores hardly spread, are not listed. In variant names, del marks residues removed and ins residues inserted between the two positions. For some of these results: The concentration of ogerin is not given here.
